113 molecules from PubChem BioAssay AID488969 (Vanderbilt High Throughput Screening Facility, 2010) can be followed below.

Structures are written as SMILES. Over roughly 110,000 compounds, “z-score” has its median near -0.1; the highest 2% begin near 2. The list shows a part of the results. Active and inactive are the calls of the source.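 How the source made its calls: active means z-score in the third read window above 3 or below -3; inactive means the rest.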

For the assay, the target named is Metabotropic glutamate receptor 8 (Rattus norvegicus) (UniProt P70579). In words: rat mGluR8 modulators via GIRK flux, primary screen, cell-based, thallium flux, HTS (AID 488969). Conditions: HEK293 rat mGluR8, GIRK (G protein-gated inwardly rectifying potassium channel) thallium flux, FluoZin2; at 10 µM; stronger effect = higher value; submaximal glutamate (EC20) added with thallium.
UniProt P70579, sequence (P70579 whole entry, looked up): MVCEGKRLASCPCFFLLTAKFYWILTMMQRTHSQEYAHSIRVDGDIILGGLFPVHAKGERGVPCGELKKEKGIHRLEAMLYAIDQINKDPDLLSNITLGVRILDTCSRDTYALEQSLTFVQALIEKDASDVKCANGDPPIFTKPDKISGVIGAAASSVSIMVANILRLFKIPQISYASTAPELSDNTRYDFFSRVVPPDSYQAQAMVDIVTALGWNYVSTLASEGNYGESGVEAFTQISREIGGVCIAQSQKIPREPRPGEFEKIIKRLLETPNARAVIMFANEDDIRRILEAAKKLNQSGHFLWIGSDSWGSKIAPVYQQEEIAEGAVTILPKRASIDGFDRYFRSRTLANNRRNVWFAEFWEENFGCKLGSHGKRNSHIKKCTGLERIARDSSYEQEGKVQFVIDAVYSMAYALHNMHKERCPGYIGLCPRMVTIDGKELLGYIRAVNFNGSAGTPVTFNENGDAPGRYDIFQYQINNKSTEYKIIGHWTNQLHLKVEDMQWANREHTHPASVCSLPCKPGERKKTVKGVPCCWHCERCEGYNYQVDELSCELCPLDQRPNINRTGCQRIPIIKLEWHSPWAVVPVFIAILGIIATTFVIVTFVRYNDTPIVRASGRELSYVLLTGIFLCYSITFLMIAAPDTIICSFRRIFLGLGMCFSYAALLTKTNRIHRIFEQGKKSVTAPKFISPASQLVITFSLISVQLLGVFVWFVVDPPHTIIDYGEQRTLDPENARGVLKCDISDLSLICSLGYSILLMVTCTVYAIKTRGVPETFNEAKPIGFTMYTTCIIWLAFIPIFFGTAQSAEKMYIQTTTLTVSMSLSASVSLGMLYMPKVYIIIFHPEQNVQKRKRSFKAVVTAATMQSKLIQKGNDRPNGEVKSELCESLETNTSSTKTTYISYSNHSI
`N#Cc1ccc(CSCC(=O)O)cc1`: the z-score worked out at 0.0977.
`CNC(=O)CSc1nnc(-c2cccc(S(=O)(=O)N3CCOCC3)c2)n1-c1ccc(F)cc1` showed a z-score of 0.182.
Regarding `O=C(CN1C(=O)NC2NC(=O)NC21)NN=C1CCCC1` (stereo not drawn), the z-score was -0.395.
Then `O=C(CN(Cc1ccco1)C(=O)c1ccc(Cl)cc1)Nc1c(Cl)cc(Cl)cc1Cl`, with -0.276; and `Cc1cc(NC(=O)CSc2nnc(CNc3cccc(C(F)(F)F)c3)n2Cc2ccco2)no1`, with -0.233; and `CCCc1cc(=O)n2[nH]c(C)nc2n1`, with 0.153.
For the molecule `CCc1ccc(S(=O)(=O)NCc2cn3c(C)csc3n2)s1`, the z-score is 0.337.
The molecule `COc1ccc(C2c3c(ccc4ccccc34)Oc3ncn4nc(Cc5ccc(OC)c(OC)c5)nc4c32)cc1` (stereo not drawn) came in with a z-score of -0.169.
Molecule `Cc1cc(Cl)ccc1NC(=S)NCCN1CCOCC1` returned a z-score of 0.224.
For the molecule `CCOC(=O)c1ccc(NC(=O)c2ccc3c(c2)OCO3)cc1`, the z-score was -0.427.
As for `COc1ccc2c(C)cc(SCC(=O)c3ccc4c(c3)OCO4)nc2c1`, the z-score was 0.554.
`CCc1ccc(N(C(=O)Cc2cccs2)C(C(=O)NC2CCCCC2)c2cn(C)nc2C)cc1` (stereo not drawn) gave a z-score of -0.152.
As to `COc1cccc(Oc2cn[nH]c2-c2ccc(O)cc2O)c1`, the z-score is -0.382.
Molecule `O=C(CSc1nc2ccccc2c(=O)n1NC(=O)c1ccccc1)c1ccccc1` came in with a z-score of 0.299.
`CCOC(=O)c1nc2nc(C)c(Cl)c(=O)n2[nH]1` registered a z-score of 0.555.
Molecule `Cc1ccc(-c2nnc(Nc3ccc(C(=O)N(C)C)cc3)c3ccccc23)cc1S(=O)(=O)NCC1CCCO1` (stereo not drawn) came in with a z-score of -0.0331.
Turning to `Cc1ccc(S(=O)(=O)N2CC3CCC2C3)cc1` (stereo not drawn), the z-score worked out at 0.802.
Molecule `C=CCn1cc(/C=N/NC(=O)COc2cccc3cccnc23)c2ccccc21` registered a z-score of -0.515.
On to `CCCC1=C(C(=O)OCC)C(c2cc(Cl)cc(OC)c2OCc2ccccc2)NC(=O)N1` (stereo not drawn), for which the z-score stood at 0.293.
`O=S(=O)(N/N=C\c1ccc(-c2ccccc2Cl)o1)c1ccccc1`: the z-score is -0.0372.
In the case of `CCc1cc2c3c(c1)/C(=C1/SC(N)=NC1=O)C(=O)N3C(C)(C)C=C2C`, the z-score was -0.0547.
Then `CC(C)CC(=O)Nc1ccc(Nc2ccccc2)cc1`, with -0.238; and `COc1ccc(N2C(=O)CC(NC34CC5CC(CC(C5)C3)C4)C2=O)c(OC)c1` (stereo not drawn), with 0.417.
Consider `Cc1ccc(S(=O)(=O)Nc2cccnc2)cc1`, for which the z-score is -0.295.
In the case of `CC1(C)CC(=O)c2c(nn(-c3ccccc3)c2N)C1` it was -0.372.
Then `[O-][N+]1=C(c2cccs2)CN(O)C1`, with -0.145.
`Cn1c(=O)c2[nH]c(NCC3CCCO3)nc2n(-c2ccccc2)c1=O` (stereo not drawn) displayed a z-score of 0.0423.
`O=C(CCc1ccc(S(=O)(=O)N2CCOCC2)cc1)NCCc1ccccn1`: the z-score came out at 1.44.
For `Cc1cc(O)ccc1Nc1nc(-c2sc(N)nc2C)cs1`, the z-score was -0.368.
`C[N+](C)(C)CCCCCCC(=O)/C=N/O` came in with a z-score of 0.559.
As to `Cc1cccc(Nc2nnc(SCC(=O)NCc3cccs3)s2)c1C`, the z-score is -0.0186.
In the case of `O=C(COc1ccc(Br)cc1Cl)NC(=O)NCc1ccccc1` it was 0.301; in that of `CCC1SC2=NC(C)=C(C(=O)OC)C(c3ccc(C)cc3)N2C1=O` (stereo not drawn), -0.234.
In the case of `CC(=O)c1cccc(NC(=O)c2nccnc2C(=O)O)c1` it was -0.311.
For `COC(=O)c1ccc(-n2c(C)cc(C(=O)CSc3ccc(NC(C)=O)cc3)c2C)cc1`, the z-score is active: 3.5.
`Cc1ccc(C(=O)COC(=O)CCc2nc3ccccc3[nH]c2=O)cc1C` came in with a z-score of 0.642.
Then `O=C(Nc1cccc(C(F)(F)F)c1)c1cc2c(=O)c3ccccc3oc2nc1C(F)(F)F`, with -0.121; and `COc1ccc(S(=O)(=O)NCc2ccc(C(=O)N3CCc4ccccc4C3)cc2)cc1`, with -0.293; and `O=[N+]([O-])c1ccc(-c2cn(-c3ccc(Cl)cc3)c(=S)[nH]2)cc1`, with 2.83.
Molecule `CCCc1cc(C(=O)NCc2cccnc2)no1` gave a z-score of -0.0421.
In the case of `O=C(Cn1c(=O)oc2cc(S(=O)(=O)N3CCCC3)ccc21)N1CCCC1`, the z-score was 0.458.
For the molecule `CC(=O)Nc1sc(N)nc1-c1ccccc1`, the z-score is -0.119.
Then `COc1ccc(N2CC(C(=O)OCC(=O)c3cccc(OC)c3)CC2=O)cc1` (stereo not drawn), with 0.459; and `O=C(Cn1cnc2c(nnn2Cc2ccc(F)cc2)c1=O)OCc1ccccc1`, with 0.0615; and `CC(C)(C)c1sc(N)nc1-c1ccccc1`, with -0.349.
Regarding `CN(C)CCCNCCCCNC(=O)/C=N/O`, the z-score came to 0.0617.
`CCCC(=O)Nc1nn(C)c2nc3c(C)cccc3cc12` showed a z-score of -0.168.
Molecule `Cc1c(NC(=O)C2CCCN(S(=O)(=O)c3cnc[nH]3)C2)c(=O)n(-c2ccccc2)n1C` (stereo not drawn) returned a z-score of 1.18.
Consider `CCCS(=O)(=O)NCc1cn2c(C)csc2n1`, for which the z-score was 2.02.
`CCC(C)C(=O)Nc1cc(OC)c(OC)cc1C(=O)O` (stereo not drawn) showed a z-score of -0.0611.
Molecule `O=c1c(-c2ccccc2)nc(-c2ccccc2)cn1O` came in with a z-score of 2.86.
`O=C(OCC(=O)N1CCN(c2ccccc2)CC1)c1ccc2ccccc2n1`: the z-score was -0.0809.
Molecule `CN1CCN(C(=O)C2C3C=CC(C3)C2C(=O)O)CC1` (stereo not drawn) returned a z-score of -0.159.
In the case of `O=S(=O)(NC1CCCC1)c1ccccc1Cl` it was 0.491; in that of `O=S(=O)(c1ccccc1F)N(Cc1ccco1)Cc1nnc(-c2ccccc2Br)o1`, 0.682; in that of `CNC(=S)NNC(=O)Cc1ccccc1`, -0.0522.
`Cc1c(Br)c([N+](=O)[O-])nn1CC(=O)NCc1cccnc1` registered a z-score of -0.135.
For the molecule `CCc1ccc(/C=N/NC(=O)c2ccc(OC3CCCC3)cc2)s1`, the z-score came out at 1.59.
The molecule `CC(=O)C1=C(C)NC(SCC(=O)Nc2nc3ccccc3s2)=C(C#N)C1c1ccc(Cl)cc1` (stereo not drawn) came in with a z-score of -0.132.
Take `O=C(Oc1ccc(-c2nnco2)cc1)N1CCCCC1`: the z-score is -0.314.
On to `CNC(=S)N1CCN(c2ccc(OC)cc2)CC1`, for which the z-score is active: 8.68.
Then `CCNC(=S)N/N=C/c1cc(C)ccc1C`, with 2.43; and `CCCOc1ccc(-c2nc(OCC)c3ccccc3n2)cc1`, with 0.305; and `C=C(C)CSc1nc2c(c(=O)[nH]c(=O)n2C)n1CCC(C)C`, with -0.247.
`CCCc1nc2ccccc2c(C(=O)O)c1CC` showed a z-score of 0.148.
In the case of `CN1CCN(c2cc(=O)n(Cc3ccc(F)cc3)c(=O)[nH]2)CC1`, the z-score was 0.313.
In turn, `O=C(Cn1c2[n+](c3ccc(C(F)(F)F)cc31)CCCCC2)Nc1ccccc1` had a z-score of 1.55.
On to `O=C(CCCC(=O)N(CC(=O)NC1CCCCC1)CC1CCCO1)Nc1ccccn1` (stereo not drawn), for which the z-score was found to be 0.155.
`CCn1c(CNc2ccc(Cl)cc2)nnc1SCCN1CCCCC1` gave a z-score of -0.013.
`O=c1nc(N2CCCC2)nc(Nc2ccccc2)[nH]1` displayed a z-score of -0.464.
Take `CCN1CCN(c2nc(N)c([N+](=O)[O-])c(Nc3ccc(C)c(C)c3)n2)CC1`: the z-score was -0.561.
In the case of `COC(=O)c1ccccc1NC(=S)NC(NC(=O)c1ccco1)C(Cl)(Cl)Cl` (stereo not drawn) it was active: 15.3; in that of `CCCSc1nc(C)c(CC(=O)OCC)c(=O)[nH]1`, -0.322.
For the molecule `CC1=NN(C(=O)c2csc(C)c2C)C(O)(C(F)(F)F)C1` (stereo not drawn), the z-score is -0.282.
`COc1cccc(N=Nc2c(N)[nH]n3c(=O)cc(-c4ccccc4)nc23)c1`: the z-score was determined as 0.0125.
As to `Cc1cc(C)c(NC(=O)CN2CCN(C)CC2)c(C)c1`, the z-score was -0.0797.
Then `Cc1ccsc1C(=O)NNC(=S)NCC(C)C`, with -0.212; and `O=C(c1ccccc1)c1c(O)cc(-c2ccccc2)oc1=O`, with 0.0942.
`Cc1ccsc1C(=O)N(c1nc2ccccc2s1)c1c(C)cccc1C` registered a z-score of 0.0693.
`O=C(Nc1ccc(S(=O)(=O)N2CCCC2)cc1)c1ccc2c(=O)n3c(nc2c1)CCCCC3`: the z-score amounted to 0.0927.
Molecule `CC1C(c2ccccc2)=[N+]([O-])C2(CCCCC2)N1O` (stereo not drawn) came in with a z-score of 0.201.
The molecule `O=C(NCc1ccccn1)C1CCCN(S(=O)(=O)c2ccc(Br)cc2)C1` (stereo not drawn) registered a z-score of 0.025.
In the case of `Cc1ccc(C(=O)COc2ccccc2C(=O)Nc2ccccc2)cc1` it was -0.138; in that of `CC(C)(C)N1CC2(c3ccccc3)CN(C(C)(C)C)CC(c3ccccc3)(C1)C2=O`, 1.19; in that of `COc1ccc(CCNC(=O)c2cnn(-c3ccc(C)c(C)c3)c2NC(=O)c2ccco2)cc1OC`, -0.163.
Molecule `COc1ccccc1-n1cnnc1SCC(=O)Nc1ncc(Cl)cc1Cl` showed a z-score of -1.01.
With `Cc1ccc(-c2noc(CN3CCOCC3)n2)cc1`, the z-score was 0.283.
In the case of `C/C(=N/NC(=O)c1cc2ccccc2cc1O)C1C(=O)c2ccccc2C1=O`, the z-score was -0.443.
In the case of `CC(=O)Nc1ccc(S(=O)(=O)NCC(C)NS(=O)(=O)c2ccc(NC(C)=O)cc2)cc1` (stereo not drawn), the z-score is 0.018.
In the case of `COc1ccc(CNC(=O)COC(=O)CCCOc2ccc(Cl)cc2Cl)cc1` it was -0.254.
`Cc1ccnn1CC(=O)N/N=C/c1ccco1` returned a z-score of -0.00195.
In the case of `CC(C)(C)OC(=O)N[C@@H](Cc1ccccc1)c1nnc(SCC(=O)O)o1` it was 0.308.
Turning to `COc1ccc(/C=N/Nc2cc(OC)ncn2)cc1`, the z-score is -0.812.
Regarding `CCOC(=O)NC1(NCc2ccccc2)Oc2ccccc2O1`, the z-score came to 0.198.
As for `CCOc1ccc2nc3c(cc2c1)CN(CCOC)C(=NCCOC)S3`, the z-score was -0.836.
As for `CCOc1ccc(-c2cn(-c3ccc(OC)cc3)c(SC)n2)cc1`, the z-score was -0.0709.
As for `Cn1c(SCC(=O)O)nc2ccccc2c1=O`, the z-score was determined as 0.248.
Then `O=C(N1CCOCC1)C12CC3CC(C1)CC(c1ccccc1)(C3)C2`, with -0.0428.
The molecule `Cc1ccn2c(/C=N/OCc3cccc(F)c3)c(-c3ccc(Cl)cc3)nc2c1` had a z-score of 0.076.
`COc1ccc(Nc2nc(N)nc(CSCCO)n2)cc1` showed a z-score of 0.378.
With `CCc1ccc(CCC(=O)Nc2ccc(C)cc2C)o1`, the z-score turned out to be 0.169.
As to `Cc1ccc(NC(=O)c2cc(S(=O)(=O)N3CCCCC3)cs2)cc1`, the z-score was -0.205.
`CCOC(=O)Cn1nc(CC)c2ccccc2c1=O` yielded a z-score of -0.286.
Molecule `CCOC(=O)C1=C(C(F)(F)F)Nc2ncnn2C1c1cc(OC)c(OC)cc1OC` (stereo not drawn) came in with a z-score of 0.305.
In turn, `c1csc(C2Nc3cccc4cccc(c34)N2)c1` had a z-score of -0.272.
The molecule `CC(=O)Nc1ccc(OCC(O)CN2C(C)CCCC2C)cc1` (stereo not drawn) showed a z-score of -0.417.
Regarding `CC(C)Oc1ccc(CNC2CCOC(C)(C)C2)cc1` (stereo not drawn), the z-score was -0.704.
Molecule `CC1CN(CC(O)COc2ccccc2C(C)(C)C)CC(C)O1` (stereo not drawn) yielded a z-score of -0.187.
Turning to `COc1ccc(OC)c(C2C(C(C)=O)=C(O)C(=O)N2c2ccc(O)cc2)c1` (stereo not drawn), the z-score stood at 0.337.
`CCOC(=O)c1sc(NC(=O)CSc2nnc(Cc3ccccc3)o2)c(C(=O)OCC)c1C` registered a z-score of 0.315.
For the molecule `CC(=O)c1ccc(S(=O)(=O)N2CCN(c3nc4c(C)c(C)ccc4cc3C#N)CC2)cc1`, the z-score is -0.378.
In turn, `CCc1cc2c(N[C@@H](Cc3c[nH]c4ccccc34)C(=O)O)ncnc2s1` came in with a z-score of -0.16.
In turn, `COc1cc2c(C(=O)N3CCN(c4cccc(Cl)c4)CC3)cn(C)c(=O)c2cc1OC` displayed a z-score of -0.848.
